In the RNAGym collection of RNA variant scans (doi:10.7554/elife.90254) one finds self-cleavage data, which are given here for 167 variants.

B1: LINE1-mini (parent)
chain: GGCAGAGCUCAACACAGCGUGGCAAAGUGGCUGUGGCUAGACUGCC

Read counts are not given, so values of variants with three or more changes are uncertain.

The variants in the series derive from B1. The series can be described thus: self-cleavage, relative activity (ratio to wild type); higher = more cleavage; in vitro, sequencing; the parent is a self-cleaving ribozyme.
On to U9A C13U C15U A16C A25C, for which the self-cleavage stood at 0.3.

For the variant G19C G36A C37A C45U C46U, the self-cleavage was 0.08.

In the case of A6C G19U U28G G40A C46A, the self-cleavage was determined as 0.2.

Consider G5C U28G C45A, for which the self-cleavage worked out at 0.01.

On to G1C C3G U38C G44C, for which the self-cleavage is 0.34.

With G5U G33C C37G U38A, the self-cleavage came to 0.04.

Consider G1A G7C G19C G27U U32A U38A, for which the self-cleavage is 0.05.

Turning to A4G A16C C18G G29U, the self-cleavage came out at 0.17.

As for G5U A11G U32G, the self-cleavage came to 0.

For A16C C18U G30C G44A, the self-cleavage is 0.09.

As to G21U G33A U38G, the self-cleavage came to 0.09.

Regarding C13U G22U G35C C45A, the self-cleavage was 0.1.

Turning to C13U G33A U43C G44C, the self-cleavage came out at 0.07.

As for C8A G22A C37G, the self-cleavage is 0.01.

As for C10G C31A C42U, the self-cleavage is 0.01.

Take A4G U9C G29C U34C: the self-cleavage was 0.01.

For G7A A14U G35C, the self-cleavage amounted to 0.11.

As to G1A G5A C8U A12C A14C A16U C42G G44U, the self-cleavage was determined as 0.02.

With A4U C8U A12G, the self-cleavage was 0.19.

Take C8A U38A G40C: the self-cleavage was found to be 0.12.

Take C8U C31A U34A: the self-cleavage came out at 0.3.

Turning to G1C G2A A25C C37U, the self-cleavage was determined as 0.06.

As to G1U U9A G36U, the self-cleavage came out at 0.01.

Regarding G17C U20C G33A U34A C42A, the self-cleavage was found to be 0.02.

With G27U G29C C31U G33C C45A, the self-cleavage was determined as 0.01.

As to G7A C13U G35C, the self-cleavage is 0.27.

For C13A G21C U28C C45U, the self-cleavage worked out at 0.08.

For G5C G30U C37G, the self-cleavage is 0.11.

As for C3A C8G G27A, the self-cleavage worked out at 0.26.

In the case of C8G G21U U32C, the self-cleavage came out at 0.01.

With G21U C37U U38C, the self-cleavage was 0.01.

Turning to G7U U9G A16G, the self-cleavage is 0.03.

In the case of G2C C31G U32G G35U, the self-cleavage stood at 0.04.

A4U C8A G44U: the self-cleavage worked out at 0.13.

As to G1A U20A G27A, the self-cleavage was found to be 0.51.

Take G29U U32C C45U: the self-cleavage worked out at 0.1.

For C3G G5U U9G A41C, the self-cleavage is 0.03.

For the variant A4C G7U C13A, the self-cleavage was determined as 0.46.

With A4U A16U A25G, the self-cleavage was 0.07.

Regarding G7C G29A G36A C42A, the self-cleavage was 0.06.

In the case of A12C G21U G22U, the self-cleavage is 0.02.

On to A6C A11U C13A G17C G22A, for which the self-cleavage was 0.04.

Consider G2C C8U A41U, for which the self-cleavage came out at 0.03.

For the variant C10G G22A C37A, the self-cleavage was 0.

For the variant G19A U28C U34A, the self-cleavage is 0.07.

On to A26G G40A A41G, for which the self-cleavage was 0.02.

Regarding A6C C8A G36U G44C, the self-cleavage is 0.13.

Consider C13A C31U G40C G44C C45U, for which the self-cleavage turned out to be 0.01.

For the variant A12C G27C G30A, the self-cleavage turned out to be 0.01.

Turning to U9C A14C G29A, the self-cleavage was 0.02.

Consider C13A A26C G36U C37G, for which the self-cleavage was 0.06.

For the variant G2A C10A A12G C18A G36U, the self-cleavage is 0.04.

As for G7C U20A C37G, the self-cleavage is 0.03.

With A6G C18A C31U C46A, the self-cleavage was found to be 0.02.

Consider G2C C8A A11C, for which the self-cleavage amounted to 0.02.

Regarding C3U G5A C10A U43C C45A, the self-cleavage was 0.15.

Turning to A16U C23A A24U A25U U38C, the self-cleavage turned out to be 0.11.

Turning to C8U C18A G40U C45U, the self-cleavage amounted to 0.16.

For the variant C3A C13G U28A C46A, the self-cleavage stood at 0.19.

Regarding G35U C37G U38A, the self-cleavage was 0.33.

A14U C18A G21U C46A: the self-cleavage was 0.14.

For the variant C8A C10G C45G, the self-cleavage was 0.01.

In the case of G29C G30U G36U C42A, the self-cleavage was 0.03.

Consider G5U A11U U32G, for which the self-cleavage worked out at 0.05.

Turning to A24U A25U C45G, the self-cleavage came out at 0.17.

With A12C G29U G33A U34C, the self-cleavage was 0.03.

As for C10A G30U C31G U43C, the self-cleavage worked out at 0.

For the variant C8G G21A G27C, the self-cleavage amounted to 0.19.

U20C A24C C31U: the self-cleavage worked out at 0.06.

In the case of C3A U20A C42A, the self-cleavage worked out at 0.1.

G1C G2A A11G A26G U43A: the self-cleavage was 0.

In the case of G1U A11G C31U, the self-cleavage worked out at 0.02.

For G5A C8A G22A G36A C45A, the self-cleavage came out at 0.47.

Consider C8U A12C U28C C45A C46U, for which the self-cleavage is 0.01.

For A26C U28C G29U A39U, the self-cleavage turned out to be 0.15.

For C10A G22C C46G, the self-cleavage came to 0.05.

In the case of A4U G7U C18A, the self-cleavage is 0.33.

On to A11G C13U A26U, for which the self-cleavage amounted to 0.

A6U G33C C42G: the self-cleavage was 0.03.

Regarding C10A C15U G44C, the self-cleavage came to 0.05.

Turning to C18G G19U G22U G33U, the self-cleavage amounted to 0.15.

For the variant G2A C3A C31A U32C, the self-cleavage worked out at 0.37.

With G7U C31U G40A, the self-cleavage is 0.34.

Regarding A24U G27C C37G A41G, the self-cleavage came out at 0.01.

Take G5C U9G G19U A26U: the self-cleavage was found to be 0.05.

On to G1C A6C G19A G27A C37A C46G, for which the self-cleavage is 0.01.

For the variant G33C G40U C45A, the self-cleavage came out at 0.03.

With C8U U9A G22C G30C C45A, the self-cleavage worked out at 0.4.

For the variant C15A A24C C31U G33A, the self-cleavage amounted to 0.03.

C3G A11C U34A C42A: the self-cleavage is 0.02.

Consider A4C G7A A26G G33U, for which the self-cleavage was determined as 0.06.

Consider G2A C13U G19C G21A A25G, for which the self-cleavage turned out to be 1.46.

Consider C10A A12U C15G G40U C46A, for which the self-cleavage is 0.03.

With C10G C15U G17A U20C C37U, the self-cleavage came to 0.01.

For C18U G21C G40C, the self-cleavage was determined as 0.04.

On to G7C A26G U32A G44A, for which the self-cleavage worked out at 0.05.

A25G C31G G36A: the self-cleavage turned out to be 0.08.

On to U9A G19C C37G, for which the self-cleavage amounted to 0.07.

Consider G17A C18A C31G, for which the self-cleavage came out at 0.03.

Turning to A25U G33C G40C, the self-cleavage is 0.05.

As for A16G U20G G30A C31A, the self-cleavage was determined as 0.04.

With G17A U20A U43G C45A, the self-cleavage was determined as 0.04.

Consider G5C A26U C37G, for which the self-cleavage amounted to 0.06.

In the case of A11U C23U U28G, the self-cleavage was found to be 0.11.

As to G7U C13G A16U, the self-cleavage stood at 0.04.

As for C13A C37G A41U, the self-cleavage stood at 0.03.

Take A4U C10A G29U: the self-cleavage stood at 0.04.

C8U C18A G21A: the self-cleavage stood at 0.29.

In the case of G2A A12C U20G, the self-cleavage turned out to be 0.02.

In the case of C10U A39U G40C, the self-cleavage was determined as 0.01.

For A26C G29U C31U, the self-cleavage amounted to 0.04.

For the variant C3G C15U A26U G27A G33U, the self-cleavage stood at 0.04.

Consider A6G C8G U9G G30C, for which the self-cleavage was 0.02.

Take G2A G22C G27U C31U G35A: the self-cleavage worked out at 0.32.

As for C10U C31A U34G, the self-cleavage was found to be 0.01.

With C18A U20G A25C, the self-cleavage came out at 0.17.

As to A6C A11G C46A, the self-cleavage stood at 0.02.

In the case of G5U C13U C37A A41C, the self-cleavage was found to be 0.14.

Regarding A24U G30U G35C, the self-cleavage came to 0.06.

With A4G G30U G44C, the self-cleavage worked out at 0.04.

Turning to C13G C15G G40U, the self-cleavage amounted to 0.02.

Turning to G1C U9A A14G, the self-cleavage turned out to be 0.01.

As for C3G G5U C15U A25G G27U, the self-cleavage was 0.02.

As for G22U A25C G29C G35U G40U, the self-cleavage is 0.03.

With C3U C31A C42G, the self-cleavage stood at 0.07.

With C13A G21A C31A U38A, the self-cleavage worked out at 0.02.

For A6U A11C C13A A16U C42G U43A, the self-cleavage was determined as 0.02.

On to G17C C23U G35U A39G, for which the self-cleavage was 0.01.

Take C8U A12G A25G C42G: the self-cleavage is 0.04.

Consider C8G C18G G21U G36U, for which the self-cleavage stood at 0.03.

For the variant A14C C31U U38C, the self-cleavage amounted to 0.02.

G7U C37U G44U: the self-cleavage was found to be 0.31.

Regarding U28A C31G U38A A39C, the self-cleavage is 0.05.

G1U A11C A25U G40A: the self-cleavage was 0.

For G1C C3U G21U G22U U32A, the self-cleavage stood at 0.02.

In the case of C10U A11C A14C, the self-cleavage was determined as 0.03.

As for C13G U32C G36U U38A C46G, the self-cleavage was found to be 0.12.

Take G17A A25U U28G G29U U34G: the self-cleavage was 0.01.

For the variant U9C C31A C42U, the self-cleavage was 0.02.

A11G G17C C18A C37G A39U G40C: the self-cleavage is 0.

Consider C31A A39C G40C, for which the self-cleavage was 0.08.

On to C10A G22U G29C, for which the self-cleavage came out at 0.03.

Take C15U A24G C31U G35U: the self-cleavage was 0.12.

Regarding A11C A12U C42A C46U, the self-cleavage came to 0.01.

Regarding U9A U20G A26G, the self-cleavage amounted to 0.42.

As for G1U A4G C37A, the self-cleavage stood at 0.17.

For G19C A24G U28G, the self-cleavage is 0.05.

For A4C A16U C37U, the self-cleavage amounted to 0.04.

As to G2C A25G C31U G35A, the self-cleavage turned out to be 0.02.

C3A G19A A24C: the self-cleavage stood at 0.13.

As to C13G G17U A25U, the self-cleavage came to 0.07.

For the variant G5A U9A G17U U34C U43C, the self-cleavage is 0.09.

For C10A A26G G30U, the self-cleavage was determined as 0.05.

In the case of G7C G17A C23A C42U, the self-cleavage turned out to be 0.13.

As to C8A U28G U32C G36C, the self-cleavage worked out at 0.17.

A11U A12C G21C C23A G27A: the self-cleavage was found to be 0.03.

As to G17C G29C C37A G44C, the self-cleavage came to 0.06.

On to C8A C15A A24G, for which the self-cleavage was found to be 0.27.

With C3A U9C C13G C37A, the self-cleavage stood at 0.07.

Take A4G G7C G40A C42A: the self-cleavage was determined as 0.22.

On to C8A A11G G35A G44A, for which the self-cleavage is 0.01.

Consider C23U U28C C46A, for which the self-cleavage worked out at 1.23.

For C13A C15A A24U, the self-cleavage amounted to 0.05.

Consider G27A C31A A41G C42A, for which the self-cleavage was 0.03.

Turning to G7A G22U A41U C42A C46U, the self-cleavage was 0.02.

In the case of C37A A39G C45U, the self-cleavage was determined as 0.04.

Regarding U32A G33A A41U G44A, the self-cleavage was 0.06.
